Several values for one entry are separate records, joined by “and”; a condition that tells them apart may be missing. Identical values can stand only once. The campaign covered roughly 230,000 compounds. About 3,600 (1.6%) were called active. Inconclusive means that the source gave no clear call. Such entries were picked first, then a sample of the others. Calls follow the shape of the dose curve; as a rule, active = well fitted inhibition curve with a large enough effect (not every such curve was filed as active); inconclusive = small, poorly fitted or top-dose-only effect, or another doubt; inactive = no such curve, though single readings can be large or run the other way. Where the call is inconclusive, the potency comes from a doubtful curve fit.
Each compound was assayed against Lysine-specific demethylase 4E (Homo sapiens) (UniProt B2RXH2) (assay: qHTS Assay for Inhibitors of Human Jumonji Domain Containing 2E (JMJD2E)). Conditions: JMJD2E catalytic domain, FDH-coupled NADH fluorescence (FDH is formaldehyde dehydrogenase); series mostly up to 57.1 µM; activity change, negative = inhibition: at the top concentration.
Sequence of UniProt B2RXH2 (B2RXH2 whole entry, looked up, the tested form may be a part): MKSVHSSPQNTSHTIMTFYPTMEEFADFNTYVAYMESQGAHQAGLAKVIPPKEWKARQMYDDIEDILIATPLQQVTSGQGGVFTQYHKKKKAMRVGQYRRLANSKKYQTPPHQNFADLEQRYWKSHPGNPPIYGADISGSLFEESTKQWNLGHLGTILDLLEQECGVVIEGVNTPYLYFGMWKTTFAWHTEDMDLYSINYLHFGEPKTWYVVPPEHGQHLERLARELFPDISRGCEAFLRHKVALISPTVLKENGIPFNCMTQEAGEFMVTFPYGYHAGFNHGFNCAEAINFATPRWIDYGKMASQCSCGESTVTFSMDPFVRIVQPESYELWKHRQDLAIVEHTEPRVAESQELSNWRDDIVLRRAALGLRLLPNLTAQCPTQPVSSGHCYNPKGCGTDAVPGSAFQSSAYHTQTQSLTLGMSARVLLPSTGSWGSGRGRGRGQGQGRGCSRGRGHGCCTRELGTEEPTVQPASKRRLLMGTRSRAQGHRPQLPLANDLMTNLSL
For `Cc1cc(C(=O)N/N=C/c2ccc(Cl)c([N+](=O)[O-])c2)c(C)n1-c1ccc(F)cc1`, the Potency was active: 22.4 µM. In the case of `O=C1S/C(=C\C=C\c2ccco2)C(=O)N1c1ccccc1`, the Potency is reported as inconclusive: 39.8 µM [inhibitor, single point]. For `Cc1nc2ncnn2c(C)c1Cc1ccc(Cl)cc1F`, the “activity change, negative = inhibition” value was inactive: -0.28%. For `COc1ccc(N2C(=O)c3ccccc3NC2c2ccc(OC)c(CN3CCOCC3)c2)cc1` (stereo not given), the Potency was inconclusive: 31.6 µM [inhibitor, single point]. `Cc1cccn2c(=O)c3cc(C(=O)N4COCC4(C)C)sc3nc12` was tested, and the Potency was inconclusive: 3.16 µM [inhibitor, partial curve]. In the case of `Cc1nc(-c2ccc(Cl)cc2)sc1C1(C)CC(c2ccccc2F)=NO1` (stereo not given), the Potency is reported as inconclusive: 28.2 µM [inhibitor, partial curve]. For `Cc1ccc(C)c(Sc2ccc(NC(=O)CCl)cc2)c1`, the “activity change, negative = inhibition” value was inactive: 0.114%. With `CCC(=O)Nc1nc2ccccc2n1Cc1ccc(Cl)cc1` the Potency was inconclusive: 35.5 µM [inhibitor, single point]. `N#C/C(=C\c1c(N2CCC(C(N)=O)CC2)nc2ccccn2c1=O)C(=O)NCc1ccco1` was tested, and the Potency was inconclusive: 20 µM [inhibitor, partial curve]. With `CCC1CCCCN1c1nc2c(C=O)c(C)nn2c2ccccc12` (stereo not given) the Potency was inconclusive: 28.2 µM [inhibitor, single point]. With `Cc1nonc1C1CCCN1Cc1nc(-c2ccccc2Cl)oc1C` (stereo not given) the Potency was inconclusive: 3.55 µM [inhibitor, single point]. `CCCNC(=S)Nc1c(C)n(C)n(-c2ccccc2)c1=O` was tested, and the “activity change, negative = inhibition” value was inactive: 8.3%. With `CSc1oc(-c2ccccc2)nc1C(N)=O` the Potency was inconclusive: 39.8 µM [inhibitor, single point]. For `COC1=CC(=O)CC(C)C12Oc1c(Cl)c(OC)cc(OC)c1C2=O` (stereo not given), the Potency was inconclusive: 28.2 µM [inhibitor, partial curve] and inconclusive: 22.4 µM [inhibitor, partial curve]. `CCOc1cc(/C=C/C(=O)NCCc2ccc(S(N)(=O)=O)cc2)ccc1OCC(C)C` was tested, and the Potency was inconclusive: 31.6 µM [inhibitor, partial curve]. For `COc1ccc(Cl)cc1C(Nc1cccnc1)c1ccc2cccnc2c1O` (stereo not given), the Potency was active: 14.1 µM. `Cc1ccc(NCc2ccc(O)c3ncccc23)cc1C` was tested, and the “activity change, negative = inhibition” value was inactive: 1.01%. In the case of `CCc1nnc(NC(=O)CSc2nnc(C)n2CC2CCCO2)s1` (stereo not given), the “activity change, negative = inhibition” value is reported as inactive: 7.09%. With `CCCCC(NS(=O)(=O)c1ccc(C)cc1)C(=O)Oc1ccc2c3c(c(=O)oc2c1)CCC3` (stereo not given) the Potency was inconclusive: 31.6 µM [inhibitor, partial curve]. `CC(=O)N=C1SC2CS(=O)(=O)CC2N1c1ccc(-c2nc3ccc(C)cc3s2)cc1` (stereo not given) was tested, and the Potency was inconclusive: 31.6 µM [inhibitor, partial curve]. In the case of `O=C1C(Nc2ccccc2)=C/C(=N/S(=O)(=O)c2cccs2)c2ccccc21`, the Potency is reported as inconclusive: 0.447 µM [inhibitor, full curve, poor fit]. `Cc1ccc(S(=O)(=O)/C(C#N)=C/c2c[nH]c3ccccc23)cc1` was tested, and the “activity change, negative = inhibition” value was inactive: -10.7%. In the case of `COc1ccccc1C(=O)Nc1ccc(N2CCCCC2)cc1`, the “activity change, negative = inhibition” value is reported as inactive: -2.4%. `COc1ccc(NC(=S)N/N=C2\CC(C)(C)Oc3ccc(O)cc32)cc1` was tested, and the Potency was inconclusive: 35.5 µM [inhibitor, single point]. For `CSc1nc2n(n1)C(c1cc(Br)ccc1F)C(C(=O)N(C)C)=C(C)N2` (stereo not given), the Potency was inconclusive: 28.2 µM [inhibitor, single point]. In the case of `CCOC(=O)C1CCN(S(=O)(=O)c2ccc3c4c(cccc24)C(=O)N3)CC1`, the Potency is reported as inconclusive: 17.8 µM [inhibitor, partial curve]. In the case of `Cc1ccc(C(=O)O/N=C\c2ccc(N3CCCCC3)c([N+](=O)[O-])c2)cc1`, the “activity change, negative = inhibition” value is reported as inactive: -1.59%. With `COc1ccc(Cl)cc1-c1n[nH]c(=S)n1C1CCCCC1` the “activity change, negative = inhibition” value was inactive: -7.36%. For `Nc1cc(Cl)nc(N/N=C/c2ccccc2[N+](=O)[O-])n1`, the “activity change, negative = inhibition” value was inactive: 3.75%. For `Cc1nc2ccccc2n2c(O)c(CC(=O)O)cc12`, the Potency was inconclusive: 39.8 µM [inhibitor, single point]. For `Cc1cc(C)c(C)c(OC(=O)c2sc(Cl)nc2C)c1`, the “activity change, negative = inhibition” value was inactive: -6.26%. In the case of `CC(=O)Nc1ccccc1-c1ccc(C)o1`, the Potency is reported as inconclusive: 35.5 µM [inhibitor, single point]. For `COC(=O)CC1c2ccccc2C(Cc2ccc(OC)cc2)C(C)N1C(=O)OC` (stereo not given), the activity change, negative = inhibition was inactive: 0.879% [at 11.4 µM]. In the case of `CC(Oc1ccc(Cl)cc1Cl)C(=O)Nc1ccc(OCC(=O)O)cc1` (stereo not given), the “activity change, negative = inhibition” value is reported as inactive: -2.74%. For `Cc1nnc2n1N=CC=C(c1ccccc1)S2`, the “activity change, negative = inhibition” value was inactive: 2.65%. `Cc1c(/C=N/NC(=O)c2sc3ccccc3c2Cl)cnn1C` was tested, and the “activity change, negative = inhibition” value was inactive: -4.92%. `COCCCNC(=S)Nc1ccc(C)cc1` was tested, and the “activity change, negative = inhibition” value was inactive: 3.45%. For `CC1CC(C)(C)NCc2ccccc21` (stereo not given), the “activity change, negative = inhibition” value was inactive: 4.79%. For `Cn1c(=O)c2c(O)c(Cc3ccccc3)c(=O)[nH]c2n(C)c1=O`, the “activity change, negative = inhibition” value was inactive: -15.7%. For `O=c1cc(CSc2nc(NCc3ccccc3)c3ccccc3n2)nc2ccc(Cl)cn12`, the Potency was inconclusive: 31.6 µM [inhibitor, single point]. In the case of `O=[N+]([O-])c1ccccc1NC(=S)N/N=C/c1ccc(O)c(O)c1`, the Potency is reported as active: 25.1 µM. In the case of `CC1CCCCN1CCNc1nc(=S)[nH]c2ccccc12` (stereo not given), the “activity change, negative = inhibition” value is reported as inactive: -2.05%. In the case of `COc1ccc(NC(=O)C/C(C)=N/NC(=O)C(=O)NC(C)C)c(OC)c1`, the “activity change, negative = inhibition” value is reported as inactive: 2.5%. In the case of `CCCCOc1ccc(C(=O)N2CCCC2)cc1`, the “activity change, negative = inhibition” value is reported as inactive: -4.02%. In the case of `CC1(CCc2ccccc2)NC(=S)N(c2ccccc2)N1` (stereo not given), the “activity change, negative = inhibition” value is reported as inactive: -2.97%. In the case of `C/C(CC(=O)Nc1cc(C)ccn1)=N\NC(=O)c1ccc(C)cc1`, the Potency is reported as inconclusive: 14.1 µM [inhibitor, partial curve]. With `O=C1/C(=C\Nc2ccc(Cl)cc2)CCN1c1ncccn1` the Potency was inconclusive: 31.6 µM [inhibitor, single point]. In the case of `COc1ccc(OC)c(-c2csc(NC(=O)c3ccc(OCC4CCCO4)cc3)n2)c1` (stereo not given), the Potency is reported as inconclusive: 12.6 µM [inhibitor, partial curve]. With `Nc1ccc(S(=O)(=O)Nc2ccc(Cl)nn2)cc1` the Potency was inconclusive: 25.1 µM [inhibitor, single point]. `COc1ccc(C2C(C(=O)N3CCN(c4ccccc4)CC3)c3ccccc3C(=O)N2C)cc1` (stereo not given) was tested, and the “activity change, negative = inhibition” value was inactive: -3.2%. With `Cc1cc(Cl)ccc1N=C1N=C(N)c2ccccc21` the “activity change, negative = inhibition” value was inactive: -0.147%. In the case of `CCCNC(=O)Cn1sc2nc(C)cc(C)c2c1=O`, the Potency is reported as inconclusive: 31.6 µM [inhibitor, partial curve]. `Cc1cc(C(=O)COC(=O)c2ccc(Br)o2)c(C)n1Cc1ccco1` was tested, and the “activity change, negative = inhibition” value was inactive: -4.21%. `COCCNC(=O)Cn1cc(C(=S)N2CCOCC2)c2ccccc21` was tested, and the “activity change, negative = inhibition” value was inactive: -5.13%. With `Cc1cc(Nc2cccc(Cl)c2)nc(NCc2ccccc2)n1` the Potency was inconclusive: 28.2 µM [inhibitor, single point]. For `Cc1ccc(-c2nnc(-c3cccc(NC(=O)c4cccs4)c3)o2)cc1`, the Potency was inconclusive: 39.8 µM [inhibitor, single point]. For `CCCC(=O)Nc1nc2nc(-c3ccccc3)cc(-c3ccccc3)n2n1`, the Potency was inconclusive: 14.1 µM [inhibitor, partial curve]. With `CC(=O)Nc1ccc(NC(=O)CSc2nc3nc(-c4cccs4)cc(C(F)(F)F)c3c(=O)[nH]2)cc1` the Potency was inconclusive: 28.2 µM [inhibitor, single point]. `Cc1ccc2cc(C#N)c(N3CCCC3)nc2c1C` was tested, and the Potency was inconclusive: 31.6 µM [inhibitor, single point]. In the case of `CCc1ccc(-c2cc(C(=O)NCc3ccco3)c3ccccc3n2)s1`, the Potency is reported as inconclusive: 28.2 µM [inhibitor, partial curve]. In the case of `CS(=O)(=O)Nc1ccccc1C(=O)NCc1ccco1`, the Potency is reported as inconclusive: 31.6 µM [inhibitor, partial curve]. For `COc1ccccc1N1CCN(Cc2cccs2)CC1`, the Potency was inconclusive: 25.1 µM [inhibitor, single point]. In the case of `Cc1ccccc1NC(=O)C1CCCN1S(=O)(=O)c1ccc2c(c1)n(C)c(=O)c(=O)n2C` (stereo not given), the Potency is reported as inconclusive: 39.8 µM [inhibitor, single point]. For `C/C=C/c1cc(CN2CCN(c3ccc(OC)cc3)CC2)c(O)c(OC)c1`, the “activity change, negative = inhibition” value was inactive: 3.56%. With `O=c1c2[nH]c3ccc(F)cc3c2ncn1CC1CCCO1` (stereo not given) the Potency was inconclusive: 31.6 µM [inhibitor, partial curve]. For `CCCCN(C)CCNC(=O)CSCc1ccc(C)cc1`, the Potency was inconclusive: 31.6 µM [inhibitor, single point]. `O=C(c1cccs1)N1CCN(Cc2cccc([N+](=O)[O-])c2)CC1` was tested, and the Potency was inconclusive: 25.1 µM [inhibitor, single point]. In the case of `O=c1[nH]c(SCc2ccccc2F)nc2ccccc12`, the Potency is reported as inconclusive: 35.5 µM [inhibitor, single point]. With `COCCOC(=O)c1cc(C(=O)c2cc(F)ccc2O)coc1=N` the Potency was inconclusive: 31.6 µM [inhibitor, partial curve]. For `COc1cccc(CNC(=O)c2cc3oc4ccccc4c3n2C)c1OC`, the Potency was inconclusive: 25.1 µM [inhibitor, partial curve]. With `CCOC(=O)CCCCC(=O)c1[nH]c(=O)[nH]c1CSc1nc2ccccc2[nH]1` the Potency was inconclusive: 7.08 µM [inhibitor, full curve]. For `CCn1c(C)[n+](CC)c2ccc(C(=O)N(C)c3ccccc3)cc21`, the Potency was inconclusive: 8.91 µM [inhibitor, partial curve]. With `O=c1c2nccnc2[nH]c(=S)n1Cc1ccccc1` the Potency was inconclusive: 35.5 µM [inhibitor, single point]. In the case of `COc1ccc(CN2CCN(CCC(C)C)C(CCO)C2)cc1Cn1cncn1` (stereo not given), the “activity change, negative = inhibition” value is reported as inactive: 5.76%. `CC1Nc2ccccc2C(=O)N1NS(=O)(=O)c1ccccc1` (stereo not given) was tested, and the Potency was inconclusive: 31.6 µM [inhibitor, partial curve].

Source: PubChem BioAssay AID2147 (National Center for Advancing Translational Sciences (NCATS), 2009)
Also: nearly all actives have a fitted effect of over 50% in size.
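For activity change, negative = inhibition in this document: 0% = wells with enzyme and -100% = buffer wells without enzyme.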
Potency is read from the fitted curve at half-maximal effect; tags tell the direction and shape of the fitted curve.
